Laboratory results from paper PMC11995724, “Antibiotic target discovery by integrated phenotypic and activity-based profiling of electrophilic fragments” (Cell chemical biology, 2025).
About 75 (2%) of roughly 3,200 compounds showed an effect of 50% or more. Some of the results follow.

tested on: T1, S. aureus MSSA476; parameters: species or system S. aureus MSSA476 (TSB) or V. cholerae SAD30 (LB); 384-well bacterial growth screen at 25 uM, OD600 relative to DMSO control; details: relative growth, OD600, TSB; 25 µM; inhibitor
T1 construct: MSSA476

SMILES	% of control remaining [%]
COc1ccc(C=C(C#N)C(=O)Nc2ccccc2)cc1 [8-A05, 2-cyano-3-(4-methoxyphenyl)-N-phenylprop-2-enamide]	112.863
O=C(CCl)COc1ccc(Cl)cc1 [10-M17, 1-chloro-3-(4-chlorophenoxy)propan-2-one]	105.938
C=CC(=O)N1CCOC(c2cccc(OC)c2)C1 (centres unmarked) [3-E09, 1-[2-(3-methoxyphenyl)morpholin-4-yl]prop-2-en-1-one]	102.743
Cc1[nH]c2ccccc2c1C=C(C#N)C(=O)NCc1ccccc1 [8-D16, N-benzyl-2-cyano-3-(2-methyl-1H-indol-3-yl)prop-2-enamide]	104.564
CC(C)CN(C(=O)CCl)C1CC1 [5-D14, 2-chloro-N-cyclopropyl-N-(2-methylpropyl)acetamide]	116.94
N#CC(=Cc1ccc2c(c1)OCCO2)C(=O)Nc1nccs1 [8-B03, 2-cyano-3-(2,3-dihydro-1,4-benzodioxin-6-yl)-N-(1,3-thiazol-2-yl)prop-2-enamide]	113.527
O=C(CCl)Nc1ccc(SC(F)F)cc1 [4-B10, 2-chloro-N-{4-[(difluoromethyl)sulfanyl]phenyl}acetamide]	108.623
O=C(CCl)N[C@H]1C[C@H](c2ccccc2)C1 [7-D12, 2-chloro-N-[(1r,3r)-3-phenylcyclobutyl]acetamide]	107.692
COC(=O)c1cccc(C(=O)CCl)c1 [10-I11, methyl 3-(2-chloroacetyl)benzoate]	61.5625
O=C1C=CC(=O)N1CCc1ccccc1 [10-E20, 1-(2-phenylethyl)-2,5-dihydro-1H-pyrrole-2,5-dione]	58.4375
NC(=O)CCc1ccc(C(=O)CCl)cc1 [10-I03, 3-[4-(2-chloroacetyl)phenyl]propanamide]	108.125
C=CC(=O)N1CCCN(C(=O)c2ccc(OC)cc2)CC1 [3-A21, 1-[4-(4-methoxybenzoyl)-1,4-diazepan-1-yl]prop-2-en-1-one]	128.864
C=CC(=O)Nc1cnn(-c2ccccc2C)c1C(F)F [1-E22, N-[5-(difluoromethyl)-1-(2-methylphenyl)-1H-pyrazol-4-yl]prop-2-enamide]	86.5055
C=CC(=O)N(Cc1cccc(Cl)c1F)C(C)C1CCOCC1 (centres unmarked) [1-F04, N-[(3-chloro-2-fluorophenyl)methyl]-N-[1-(oxan-4-yl)ethyl]prop-2-enamide]	86.8571
